From the supplement of paper PMC11417369
The other results are listed elsewhere or left out.

Test system: PfSIP2 AP2 domain 1 (GST-tagged)
Experiment: gcPBM binding intensity (ln(normalized median fluorescence intensity)); higher = stronger DNA binding
Method in brief: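 GST-tagged P. falciparum DNA-binding domains, expressed in E. coli (about 25 μg on average), were applied for 1 h to an Agilent 4 × 180k array of primer-extended double-stranded 36-bp intergenic genomic probes plus negative controls. The binding buffer was 1× PBS with 1% milk, 0.2 mg/ml BSA, 0.5% salmon testes DNA and 0.03% Triton X-100. Bound protein was detected with Alexa488 anti-GST antibody and scanned at 488 nm. Binding intensity is the highest Masliner-normalised natural-log median intensity across replicate spots of either probe orientation.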

Sequence	gcPBM binding intensity (ln)
TTTTTTTTTTTTTGTTGTACAATACTTAATCATTAT [XGTACX_site3422]	7.33
TAAATATATATTATATGTACTTATATATATATATAT [XGTACX_site4448]	9.59
TAAATCAGCCATAACACACATACATATATACATAAA [CACACA_site396]	7.04
TTTTTCATTTTTAAAATAATTATAATATTATACATA [XGTACX_negctrl_site43]	7.25
ATAATTAACAAATACACACACACACGCCCACAAAAA [CACACA_site6389]	7.22
AGCAAATAAATAAATAAATAAATAAATATATATATA [TGCATGCA_negctrl_site40]	9.16
TTTTAATAAAAGCCCATGCACACCTTAGAAAGTTTT [CACACA_site346]	7.28
ATATATATGTGTAAAAGTACATATATTTTGAAATAT [XGTACX_site4024]	7.21
TGGGCACCCATATACACACACAAATACAATGATAAA [CACACA_site4762]	8.64
TATATATATGTATATGTGCACAGTTTTCTTATTAAA [GTGCAC_site9990]	9.31
GGAAAAGGTATCCGTTCACACATAAATGGATACCAT [CACACA_site5072]	6.53
AAAAAAAAAAAAATGTGTACATACATATATTTATAT [XGTACX_site3076]	7.41
ATTACATATTGATAAGTGCAAGTGTGAGAAATGTTA	7.65
TCTATATAGATTTGCACACATAAAAATGCTTATATA [CACACA_site2389]	7.16
AATATATTATATATATGTACATATGTGTATACATTT [XGTACX_site937]	7.09
TTTTATTTATTTTATTGTACATATATAAAACTATGA [XGTACX_site3476]	7.02
CAATCAAATGGACACACACACACCTAAACATAAAAG [CACACA_site5524]	7.21
ATTAAAAAATTACAAGCATGCTTGTTAAAATTTTTT [TGCATGCA_site941]	6.61
CTTTTTTTTTTAAATTGTACAAATGTGATGTAATAG [XGTACX_site3219]	7.31
TATTTTAATATGTATACATGCATACCTACTCATACA [TGCATGCA_site779]	6.94

Sequence	gcPBM binding intensity (ln)
TAAAATTTTATAAAGGAACACACATTTTTTTTTTTT [CACACA_site8740]	6.87
AACTTGTATTTATACACACACACACTGTCTTTTTTT [CACACA_site7009]	6.94
TAGACAAAATATAATGCACACTATTATTTTTATTTA [CACACA_site5508]	7.33
AAAAAAGTTGTATTTGCACACATAAAAAAAAGATAT [CACACA_site3839]	7.32
AATTTAAAAATGGACACACACAAAAAATAATACTTA [CACACA_site250]	6.92
GTATATTATATTGGGTGTACCATATATAATATAATC [XGTACX_site8579]	7.1
TTATAAATAAAAAATACACACATATATATATATATA [CACACA_site207]	9.36
TAAAAATATATATGATTGCACTTAGGACAATATATA	7.42
GGAAACAAAAAATATATACACACTAATCATAAAAAA [CACACA_site7890]	6.81
ATTAATATATTATCATGTACACAAAAATAATTTTAT [XGTACX_site7257]	7.36
TATTCTCTCTTATGAACACACATTTTTATTTTCAAA [CACACA_site7554]	7.25
AAGAAAAATATATAAATAAATAAATATATAAATATA [CACACA_negctrl_site836]	6.7
AGAAAGAAAGAATACACACACACATATATAAATATC [CACACA_site7716]	6.89
ATTATCAATATGAAGGTGCATTTAAATAATATTTAC	10.7
TATATTCTTTATAGGTGTACTTAATAAATAAAAAAT [XGTACX_site5378]	7.34
TATGAACATAAATTTGCACACTGGATATAATATATA [CACACA_site2155]	7.21
TATATATATGTGTTTACACACAATAATGAATTAAAA [CACACA_site4659]	7.28
TATCTAGTTACTCCTTGTACATAATAAATGATTTTT [XGTACX_site5674]	7.18
ACTAAACTTTTATGTACACACATATAACATTAATTT [CACACA_site5276]	7.42
TACGTAAAAATAGGACGTACTTATTTAGAAACCATA [XGTACX_site2498]	7.09

Sequence	gcPBM binding intensity (ln)
TTGGTACCTATAGATACACACATATATACCTATATA [CACACA_site5812]	6.81
TACAAAATGGGGAACACACACATATATATATATATA [CACACA_site3844]	9.36
AAATATTATAGCACCACACACTTATTTTATTTATAT [CACACA_site7133]	7.88
ATCATCTATGTTATTACACACGTTATGTTATTATAA [CACACA_site5502]	6.96
TTTAGATAATTCATTACACACATGTATATTTATATA [CACACA_site7602]	6.95
TTTTTTTTTTTTTTATGTACGAAAGAAAAGCACATA [XGTACX_site8261]	7.16
TAACGAATTTAAATTTGTACATATATAAATATATAA [XGTACX_site2168]	6.92
TATATATATAATATTGCACACAAAATTAAAAGTAAA [CACACA_site7889]	8.02
AAAAAAAAAAAATGTGTGCACATTATTTCAACTTAA	8.69
TATTTTATCTATTTGTGTACTTATATTTATGCAAAA [XGTACX_site1499]	7.25
AAATTATTAAAAAAAAGTACATATATATATATATAT [XGTACX_site8313]	9.76
ATAAATAATATATATACACACATATCTATACATATT [CACACA_site487]	7.05
ATAATACACGATTATTTTCCCTTTATGTAAATATAT [CACACA_negctrl_site1107]	6.8
AAAAAAAATTAATTAGTGCAAAATATATACAAAATA [GTGCAC_site9762]	7.93
TAAGAAAATATTTATGTATGCATGTCCTAATATTTC [TGCATGCA_site295]	7.28
ATATAAAATATTAGTAGTACCATTAACAGTATTGTT [XGTACX_site5912]	6.93
ATTAAGATGTATATATGTACATATTACATACATATA [XGTACX_site8657]	7.11
TATGAAAAAAAAAATACACACACGAGTTGTTATACA [CACACA_site3188]	6.74
